Results reported in the supplement of paper PMC4967469.
IC50 is the fitted dose that halves viability relative to control wells, and lower means more sensitive; fits outside the tested doses are given as limits. AUC, from the same fit, is the share of area under the viability curve across the 256-fold dose range; values near 1 show little effect. Any top dose called inferred was derived from the fitted curves, not read from the paper. For some of these results: Drugs with an entry number were screened twice under separate entries, and the two screens often disagree.

Columns and labels:
Assay in all cases: Viability of human cancer cell lines after 72 h of drug (GDSC screen)
BMS-536924 = compound: Cc1cc(N2CCOCC2)cc2[nH]c(-c3c(NC[C@@H](O)c4cccc(Cl)c4)cc[nH]c3=O)nc12 [BMS-536924]
Experimental: (§1)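 Human cancer cell lines in 384-well plates, medium with 10% serum, drug for 72 h over a 256-fold dose range (nine 2-fold or five 4-fold steps up to the top dose). Adherent lines were fixed and stained with the nucleic acid dye Syto60, suspension lines read with resazurin; signal relative to control wells, capped at 0 and 100%. One two-parameter sigmoid per drug and line, fitted in a mixed model over all curves with the slope shared within a line.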

CGP-082996 (CINK4) = compound: CCNc1cc(NC2CCC(O)CC2)nc(Nc2ccc3c(ccn3Cc3ccccc3)c2)n1 [CGP-082996 (CINK4)]; settings: top dose 5.12 µM; top dose inferred
Experimental: as §1

SB-525334 = compound: Cc1cccc(-c2[nH]c(C(C)(C)C)nc2-c2ccc3nccnc3c2)n1 [SB-525334]; settings: top dose 20 µM; top dose inferred
Experimental: as §1

Olaparib = compound: O=C(c1cc(Cc2n[nH]c(=O)c3ccccc23)ccc1F)N1CCN(C(=O)C2CC2)CC1 [Olaparib]
Experimental: as §1

BIRB 0796 = compound: Cc1ccc(-n2nc(C(C)(C)C)cc2NC(=O)Nc2ccc(OCCN3CCOCC3)c3ccccc23)cc1 [BIRB 0796]; settings: top dose 10 µM; top dose inferred
Experimental: as §1

VX-702 = compound: NC(=O)c1ccc(N(C(N)=O)c2c(F)cccc2F)nc1-c1ccc(F)cc1F [VX-702]; settings: top dose 2 µM; top dose inferred
Experimental: as §1

A-770041 = compound: COc1cc(-c2nn([C@H]3CC[C@H](N4CCN(C(C)=O)CC4)CC3)c3ncnc(N)c23)ccc1NC(=O)c1cc2ccccc2n1C [A-770041]; settings: top dose 5.12 µM; top dose inferred
Experimental: as §1

Wee1 inhibitor 681640 = compound: O=C1NC(=O)c2c1c(-c1ccccc1Cl)cc1[nH]c3ccc(O)cc3c21 [Wee1 inhibitor 681640]; settings: top dose 2 µM; top dose inferred
Experimental: as §1

Shikonin = compound: CC(C)=CC[C@@H](O)C1=CC(=O)c2c(O)ccc(O)c2C1=O [Shikonin]; settings: top dose 16 µM; top dose inferred
Experimental: as §1

XMD8-85 = compound: COc1cc(N2CCN(C)CC2)ccc1Nc1ncc2c(n1)N(C)c1ccccc1C(=O)N2C [XMD8-85]; settings: top dose 8 µM; top dose inferred
Experimental: as §1

HG-5-113-01 = compound: CNC(=O)c1ccc(Nc2cc(Nc3ccccc3S(=O)(=O)C(C)C)c3cc[nH]c3n2)nc1 [HG-5-113-01]; settings: top dose 10 µM; top dose inferred
Experimental: as §1

[1] = top dose 4 µM, screen: GDSC drug entry 1091, top dose inferred
[2] = top dose 5.12 µM, screen: GDSC drug entry 62
[3] = top dose 5 µM, screen: GDSC drug entry 1017, top dose inferred
[4] = top dose 10 µM, screen: GDSC drug entry 1495

Row | Cell Line | AUC (BMS-536924; [1]) | IC50 (BMS-536924; [1]) [µM] | AUC (BMS-536924; [2]) | IC50 (BMS-536924; [2]) [µM] | AUC (CGP-082996 (CINK4)) | IC50 (CGP-082996 (CINK4)) [µM] | AUC (SB-525334) | IC50 (SB-525334) [µM] | AUC (Olaparib; [3]) | IC50 (Olaparib; [3]) [µM] | AUC (Olaparib; [4]) | IC50 (Olaparib; [4]) [µM] | AUC (BIRB 0796) | IC50 (BIRB 0796) [µM] | AUC (VX-702) | IC50 (VX-702) [µM] | AUC (A-770041) | IC50 (A-770041) [µM] | AUC (Wee1 inhibitor 681640) | IC50 (Wee1 inhibitor 681640) [µM] | AUC (Shikonin) | IC50 (Shikonin) [µM] | AUC (XMD8-85) | IC50 (XMD8-85) [µM] | AUC (HG-5-113-01) | IC50 (HG-5-113-01) [µM]
1 | RH-1 (rhabdomyosarcoma, adherent) | 0.608 | 0.469 | 0.978 | > 5.12 | 0.988 | > 5.12 | 0.66 | 3.19 | 0.992 | > 5 | 0.871 | 6.89 | 0.989 | > 10 | 0.991 | > 2 | 0.984 | > 5.12 | 0.939 | > 2 | 0.354 | 0.425 | 0.946 | > 8 | 0.605 | 1.15
2 | RKO (large intestine, adherent) | 0.971 | > 4 | 0.671 | 0.918 | 0.882 |  | 0.967 | > 20 | 0.978 | > 5 | 0.974 | > 10 | 0.982 | > 10 | 0.985 | > 2 | 0.819 | 2.65 | 0.905 | > 2 | 0.315 | 0.318 | 0.799 | 3.52 | 0.841 | 6.22
3 | RL (B-cell lymphoma, suspension) | 0.948 | > 4 | 0.986 | > 5.12 | 0.942 | > 5.12 | 0.906 | > 20 | 0.99 | > 5 | 0.989 | > 10 | 0.988 | > 10 | 0.99 | > 2 | 0.976 | > 5.12 | 0.99 | > 2 | 0.826 | 8.64 | 0.695 | 1.67 | 0.793 | 4.14
4 | RPMI-8402 (T-cell lymphoblastic leukaemia, suspension) | 0.986 | > 4 | 0.952 | > 5.12 | 0.807 | 2.14 | 0.965 | > 20 | 0.989 | > 5 | 0.932 | > 10 | 0.991 | > 10 | 0.99 | > 2 | 0.918 | > 5.12 | 0.99 | > 2 | 0.53 | 1.19 | 0.85 | 4.65 | 0.748 | 2.78
5 | RPMI-8866 (chronic myeloid leukaemia, suspension) | 0.852 | 2.75 | 0.987 | > 5.12 | 0.988 | > 5.12 | 0.828 | 11.2 | 0.81 | 2.4 | 0.963 | > 10 | 0.988 | > 10 | 0.873 | 1.69 | 0.988 | > 5.12 | 0.875 | 1.73 | 0.46 | 0.784 | 0.959 | > 8 | 0.739 | 2.83
6 | RXF393 (kidney, adherent) | 0.896 | > 4 | 0.701 | 1.48 | 0.954 | > 5.12 | 0.888 | > 20 | 0.918 | > 5 | 0.934 | > 10 | 0.934 | > 10 | 0.968 | > 2 | 0.633 | 0.859 | 0.952 | > 2 | 0.466 | 0.78 | 0.915 | > 8 | 0.819 | 8.81
7 | SBC-1 (small cell lung carcinoma, suspension) | 0.943 | > 4 | 0.983 | > 5.12 | 0.989 | > 5.12 | 0.97 | > 20 | 0.987 | > 5 | 0.925 | > 10 | 0.987 | > 10 | 0.988 | > 2 | 0.986 | > 5.12 | 0.989 | > 2 | 0.899 | > 16 | 0.942 | > 8 | 0.77 | 3.68
8 | SF126 (glioma, adherent) | 0.965 | > 4 | 0.803 | 2.71 | 0.957 | > 5.12 | 0.916 | > 20 | 0.984 | > 5 | 0.937 | > 10 | 0.802 | 5.24 | 0.985 | > 2 | 0.87 | > 5.12 | 0.984 | > 2 | 0.458 | 0.765 | 0.89 | > 8 | 0.786 | 4.58
9 | SF268 (glioma, adherent) | 0.968 | > 4 | 0.821 | 3.27 | 0.927 | > 5.12 | 0.908 | > 20 | 0.984 | > 5 | 0.925 | > 10 | 0.852 | 8.65 | 0.985 | > 2 | 0.816 | 3.12 | 0.965 | > 2 | 0.678 | 3.29 | 0.862 | 7.71 | 0.78 | 4.43
10 | SH-4 (melanoma, adherent) | 0.647 | 0.8 | 0.626 | 0.863 | 0.778 | 3.39 | 0.895 | > 20 | 0.974 | > 5 | 0.928 | > 10 | 0.968 | > 10 | 0.968 | > 2 | 0.638 | 0.949 | 0.868 | > 2 | 0.379 | 0.387 | 0.696 | 2.44 | 0.685 | 2.76
